{"source": "paper PMC12040169", "about": "(PLOS Biology, 2025)", "note": "The list shows a part of the results."}
{"test_system": "T1, C. trachomatis L2/434/Bu expressing GFP (CTL2-GFP)", "T1 construct": "L2/434/Bu GFP intracellular growth in HeLa cells", "parameters": "species or system HeLa; C. trachomatis total inclusion area by high-content imaging, normalised to DMSO", "settings": "total inclusion area; 28.5 h, 10 µM; inhibitor", "outline": "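Following bulk GFP and resorufin fluorescence reads, infected cells were fixed, Hoechst-stained and imaged on a high-content platform. Inclusion total area and number per well served as growth proxies; nuclei counts indicated host viability. MICs were derived as for the fluorescence assay.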"}
{"smiles": "Cc1c(Cc2ccccc2)c(N2CCN(C3c4ccccc4-c4ccccc43)CC2)n2c(nc3ccccc32)c1C#N", "note": "[CBK263124]", "% of control remaining": 91.8308}
{"smiles": "O=C(NCc1c(OC(=O)c2cccc([N+](=O)[O-])c2)ccc2ccccc12)c1ccccc1", "note": "[CBK260919]", "% of control remaining": 88.4163}
{"smiles": "CS(=O)(=O)N[C@H]1CO[C@H]2[C@@H]1OC[C@@H]2Nc1nccc(-c2ccco2)n1", "note": "[CBK289525]", "% of control remaining": 110.27}
{"smiles": "Cc1ccc2n1CCN(C(=O)c1cc(-c3ccccn3)n[nH]1)C2C(C)C", "note": "(stereo not drawn) [CBK282447]", "% of control remaining": 136.687}
{"smiles": "CC(C)c1ccc(S(=O)(=O)Nc2cccc(SC(F)(F)F)c2)cc1", "note": "[CBK044581]", "% of control remaining": 45.1636}
{"smiles": "COc1ccc(C(O)Cc2nc3ccccc3n2Cc2ccc(Cl)cc2)cc1", "note": "(stereo not drawn) [CBK262143]", "% of control remaining": 99.9409}
{"smiles": "COc1ccc(CCNC(=O)N2CCCC2C(=O)O)cc1", "note": "(stereo not drawn) [CBK161386]", "% of control remaining": 54.1816}
{"smiles": "CC(=O)NCCc1nc2cc(NC(=O)c3ccc([N+](=O)[O-])cc3)ccc2n1C", "note": "[CBK268368]", "% of control remaining": 99.0406}
{"smiles": "CS(=O)(=O)N1CCC(C(=O)NC(c2ccc(F)cc2)c2ccccn2)CC1", "note": "(stereo not drawn) [CBK059696]", "% of control remaining": 91.2526}
{"smiles": "O=C(Oc1ccc2c(c1)C1C=CCC1C(C(=O)O)N2)c1ccc(Cl)cc1Cl", "note": "(stereo not drawn) [CBK265285]", "% of control remaining": 98.9285}
{"smiles": "CC(C)(C)N1C(=O)c2ccc(C(=O)NNC(=O)C(C#N)C(=O)c3ccc4c(c3)C(=O)N(C(C)(C)C)C4=O)cc2C1=O", "note": "(stereo not drawn) [CBK268652]", "% of control remaining": 111.48}
{"smiles": "O=C(Nc1cccc2ccccc12)c1ccc(CSCc2ccccc2)cc1", "note": "[CBK263759]", "% of control remaining": 95.3213}
{"smiles": "CC(=O)Nc1ccc(C(=O)N2CCCC(c3cccc(Cc4ccc(Cl)cc4)n3)C2)cc1", "note": "(stereo not drawn) [CBK286134]", "% of control remaining": 94.185}
{"smiles": "Cc1ccc(NC(=O)c2cnccn2)c(C)n1", "note": "[CBK200291]", "% of control remaining": 107.165}
{"smiles": "Cc1ccn(-c2ccc(N3CCOC4(CCCC4)C3)nn2)n1", "note": "[CBK305262]", "% of control remaining": 16.1212}
{"smiles": "Cn1c2c(c(=O)n(C)c1=O)[C@H]1[C@H](O)[C@H](O)C[C@H]1C1(CCC1)N2", "note": "[CBK303250]", "% of control remaining": 108.163}
{"smiles": "N/C(=N/OCC(=O)Nc1cccc2ccccc12)c1nonc1N", "note": "[CBK265234]", "% of control remaining": 86.6785}
{"smiles": "Fc1ccccc1CN(CCCn1ccnc1)Cc1ccncc1", "note": "[CBK282981]", "% of control remaining": 115.105}
{"smiles": "Oc1ccc2ccccc2c1/C=N/Nc1nnn[nH]1", "note": "[CBK262028]", "% of control remaining": 63.0595}
{"smiles": "COc1ccc(C2=C3NN=C(N)N3NN2)cc1", "note": "[CBK093662]", "% of control remaining": 76.0455}
{"smiles": "CSCCN1CCCC2(CCN(C(=O)c3ccoc3)C2)C1", "note": "(stereo not drawn) [CBK132835]", "% of control remaining": 79.05}
